# Measurements published in publication PMC10726135.
# Some of the results follow. At the low end of the ranking the order means little. The protein was read in a cell extract, so binding may be indirect.
# Biological target: T1, HNF4alpha8 (COS-7 nuclear extract) (UniProt P41235-5)
# T1 sequence: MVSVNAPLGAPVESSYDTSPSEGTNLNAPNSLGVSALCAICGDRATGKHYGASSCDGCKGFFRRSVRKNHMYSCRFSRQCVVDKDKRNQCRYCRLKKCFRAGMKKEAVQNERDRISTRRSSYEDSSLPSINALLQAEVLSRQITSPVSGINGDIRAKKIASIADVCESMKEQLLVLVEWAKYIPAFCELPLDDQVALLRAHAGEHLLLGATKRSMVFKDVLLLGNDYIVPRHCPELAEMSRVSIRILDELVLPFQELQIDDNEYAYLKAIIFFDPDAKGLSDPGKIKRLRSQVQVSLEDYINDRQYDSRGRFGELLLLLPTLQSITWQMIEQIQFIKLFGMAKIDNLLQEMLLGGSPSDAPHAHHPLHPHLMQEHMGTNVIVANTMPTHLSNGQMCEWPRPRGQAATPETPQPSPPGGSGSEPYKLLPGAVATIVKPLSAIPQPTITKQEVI
# Test: protein-binding microarray
# Conditions: COS-7 nuclear extract on double-stranded Agilent 4x180k PBM; binding buffer, salt, pH and temperature not given; high values mean tight binding; double strand, one strand shown; sequences stand for … in …GCCTAGGGAGATTAGAGTATCGGTCGA
row,Sequence,binding signal (log2 normalized intensity)
1,CTAAACCAGGATCCAGTCCTCACCCAGAAC,0.613
2,TGGCAATGGCTGCAGCTCTTCCACGTGAGA,-1.35
3,TCTGGCTTCTCGTGAGTATTTTTTCAACAT,-0.173
4,AACAAAAACCAAATCACAATTTTCAAGAAC,-1.33
5,GACAAAGTACAGAGCAGGTGCTCGGTGAGT,-1.29
6,AAAGAGTACACAAAGGTATCAGGGCTCAGG,-1.28
7,ACTCTAGGAACTTGTCTAAAAACATTGTGG,-0.692
8,CTAAGGCAGGGAAGGAGAGTGACCTCTGCT,3.47
9,GGGTCCTACAGAACCTCCCTCCCCATCTCC,4.13
10,TCTGCAAACTTCATGGCTTAAAACGACTGA,-0.618
11,ACTCTTTGTTATTTATTGGCCAGTAGCTCT,1.49
12,ACCTGTTACAAAACAGGTTCTTCCACGACT,-1.51
13,TTTGGAATTTGACCTCATTTGCTCCCAGTG,4.58
14,ACATTGTGTCAATTCCAAAGTTCAAGTAGA,4.51
15,ACCTTTGCCCTGGATCTTGAAGCAGAAAAC,1.68
16,GTGAATTTCAGTGCCCTTTGAGATTTGCAT,2.47
17,AGTGAGCTAAGATTGGACTCTGCACTCCAG,5.96
18,CAGAAAAGGTAAGTGACCCTGGTCTTTGCC,2.41
19,GAACTCCCTATCCCCAGATTCCAGGGGAGG,-1.34
20,CTGCCAGTTGTCATTTGGGGCGGGCGGTCG,1.03
21,TCTTAGCAGAGATTCCTGCTGAGTTATCTC,-1.29
22,TGAGTATCCAAAGGTCAGTGACAAATGTCA,4.51
23,AGGCACTGGGATCCAAAGTTCATGGAAAGT,3.29
24,TCTGTATGTCTAAGGTTTCTCAGCCCCATC,4.22
25,GATCAAAGGCCACCGTTGGAATGTTCCAAG,1.58

row,Sequence,binding signal (log2 normalized intensity)
1,CCAAAGGTTAAGGAAACAAGGGTACCAACA,-1.48
2,CTTGGCCTCAATGTTTACACTTCCATGTTT,0.861
3,CTGATCCTCTCCATGCAGCCAGGGTCAGGA,2.37
4,ACGTTTTCCTGCTGACCCTCTCCCCACCAT,4.76
5,AGACATCATATTTGTTATATTTGTTATACC,1.55
6,CCCATCGACCTTTGCTCCCGACTCTGAGGC,5.95
7,ATAAGGCTAAGTGGAGGATTTGGGTGATGT,0.76
8,ATACCCATTCACATGACCTTTGTCCGTTCC,7.49
9,CTGTGGACTCTGAGCCTCCTCCCTCTCTCT,2.41
10,GTCTCCCTACCTCTGCACAGCTCCAGACAT,-0.945
11,AATATCCACACAAACCCAGTTTGCATTTTC,-0.51
12,CTAATCAGGCCTCCCTCCCTCCCCCATTAG,4.79
13,AAAATCAGTCTCAGTGGGCTAAACATCAAG,-1.07
14,CTGGGTTTCTTCCCTAATGGACATCTCTAG,0.0618
15,GACACAAAAGGGTACAGCAGCATAAAGGAC,-1.19
16,ACAGAGCTATTTTAGGGTAAAGATCTTGGG,0.642
17,TCCCCCACCTACTGTCTCCTAATCAGCAAC,2.03
18,GGGTGTAAACCTGGTGGAAGATAAGGGTTA,0.213
19,TGGGGTATCAGGTGGTGATGGTGGGAGGGA,-0.797
20,ATTTGAGCCCAGGAGTTCAAGACTGGTATC,0.557
21,GCCACTGCCTAGATAAAAGGGTCTTAGTAT,0.0165
22,AATACTTGGAGACAGTGAGACGCAAGCATA,-1.35
23,AGCACTCAAATGATCAAAGAAGCCCAGGGC,-1.42
24,AAAATCACTTGGATAGCGCGTGGCCCAAGG,-1.34
25,AGAGGGCCTCTGCTTGTCTTGGTTGTAGAA,0.69

row,Sequence,binding signal (log2 normalized intensity)
1,GCTATCAATGACCCATGTTTGCCCTTGATA,3.01
2,AGCTCTTTGCACAGTACTGATCTGGGGCCT,-1.21
3,CATAGTGGGTTTCGGTGTCATCTAGACCTG,1.56
4,TAAAGTCTGTTTGATTCCATGCTGATAATG,0.985
5,AAAGATCATCTGGTGGCTTGAGTTGGAGAA,0.586
6,GGGACAAGGCTGTCCCCCATCTCATCCTGG,0.358
7,TCAGATATCTGAATGTACCTTTGAAACCTA,3.79
8,GAGAAGGCAGGTAGAAGAAGAGGTCAGCTT,1.04
9,CATCCTGAGGCAAAATTCCTCGCTAGCTGT,-1.21
10,AAGAGAGAAAGAAACAGGGGATGTTGATTC,-1.28
11,GCTGACGCCGCCTCTGCCTCTTGACCCCTT,6.14
12,CTTGTGGATCCTTGGAGGACCTTGGGTTCA,3.21
13,GATGGGGGCAAAGGTTGACACCTAGCTGAG,5.11
14,AATATCTTCCCATAAAACCTAGACAGAAGC,-1.36
15,CACAGGAGAGGAGAAAGAGCAATCTCTCAT,-1.39
16,TGGGAGCTAATGAGCACATTCTTCAATATC,-1.2
17,TAGCCACTCTACAACAAAGGAAATGAAGCA,-1.08
18,TTTCACTTTTTCCCTGCATGTTCACCTCTT,1.68
19,GGCGTCTCTTAGTATTACCATGTCCTGTGA,1.49
20,GGAAAGCTATCCCGGCCAACGGTCGGAAGG,-1.1
21,ATGAGATAAGATGAAGCTCTCAGAATAGCA,-1.41
22,TTAGAGTCCAGACACAAAGAGACAAAGCTT,-1.27
23,ATCCCCAGTATAAACAACACAGAACTAGCC,-1.46
